Values marked as one replicate rest on one cluster of the flow cell; about a third of the high ones do not repeat.
system: ATP; assay: switch fluorescence ratio, 500 uM ATP over buffer (Cy3 cluster intensity, sum of 5 cycles each) (fold (ratio)); higher = stronger signal-on switching upon ATP binding; sequences stand for … in TCGTCGGCAGCGTCAGATGTGTATAAGAGACAGTTTTTTTTTTTTTTTTTTTTTTTTT…TC; conditions: aptamer strand: ATP DNA aptamer (quencher-CACCTGGGGGAGTATTGCGGAGGAAGG + anchor), 100 nM annealed; ATP concentration: 500 uM; one replicate
Procedure, shortened: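 Cy3-labelled switching-strand clusters on a modified Illumina MiSeq flow-cell were annealed to 100 nM quencher-labelled ATP aptamer and imaged first in selection buffer, then after 15 min with 500 uM ATP at 22 °C. NaOH stripping and re-annealing separated each of five buffer/ATP cycles, and clusters outside 100-1000 RFU were excluded. The fluorescence ratio sums target-cycle Cy3 intensity over buffer-cycle Cy3 intensity per cluster and averages it per switch-domain sequence.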
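Also: ATP exposure 15 min at 22 °C before imaging.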

Sequence | switch fluorescence ratio
ATATTACCTT | 0.993
ATATTACGTT | 1.07
ATATTATCGA | 1.02
ATATTATTTG | 1.01
ATATTCCGAG | 1.16
ATATTCGAGG | 1
ATATTCGAT | 1.01
ATATTCGCTG | 1
ATATTCTTGA | 0.95
ATATTGAGTT | 1.31
ATATTTATAA | 1.05
ATATTTATGT | 1.01
ATATTTCCGC | 1.05
ATATTTGAAG | 1.01
ATATTTGGAC | 1.05
ATATTTTGAT | 1.01
ATATTTTTCC | 1.09
ATCAAAACCC | 1.11
ATCAAGGGAT | 0.993
ATCAATAACT | 1.02
ATCAATCTCT | 0.997
ATCAATGTGG | 0.937
ATCACGACCG | 1.11
ATCACGGATT | 1.04
ATCACTAATG | 1.05

Sequence | switch fluorescence ratio
ATCACTCTCC | 1.14
ATCAGACCA | 0.964
ATCAGAGCAG | 1.04
ATCAGAGTAT | 1.01
ATCAGAGTGG | 0.975
ATCAGATATT | 0.986
ATCAGATCAT | 1.06
ATCAGGTTGG | 1.01
ATCAGTGTTT | 0.985
ATCATACTTT | 1.01
ATCATAGAGC | 0.915
ATCATAGATG | 1.02
ATCATGCTTT | 0.998
ATCATGGACG | 0.909
ATCATGGCGT | 1.03
ATCATTACCT | 1.21
ATCATTTTCA | 1.03
ATCCAACTTT | 1.02
ATCCACGCTT | 1.06
ATCCACGGCG | 1.05
ATCCAGAGAC | 1.01
ATCCAGTCTG | 0.992
ATCCATAGGG | 1.01
ATCCCGACCA | 1.01
ATCCCTCCCG | 1.18

Sequence | switch fluorescence ratio
ATCCGAGACG | 1.03
ATCCGATTCA | 0.99
ATCCGGGCAG | 1
ATCCGTTAGT | 0.988
ATCCTAATAA | 1.05
ATCCTTGGTT | 0.989
ATCCTTTGGC | 1.03
ATCCTTTGGG | 0.99
ATCCTTTTAC | 1.06
ATCGAACTCG | 1.01
ATCGAAGAGA | 1
ATCGAAGTAG | 1
ATCGAATCTT | 0.947
ATCGATTTAA | 0.981
ATCGCAAACG | 1.41
ATCGCACATC | 1.94
ATCGCAGCAT | 1.51
ATCGCCGCAC | 2.54
ATCGCCTCGG | 0.997
ATCGGACGTA | 1.02
ATCGGATTTG | 1.01
ATCGGCACCC | 1.04
ATCGGGCACT | 1.11
ATCGGGCCAG | 0.965
ATCGGGCCCG | 1

Sequence | switch fluorescence ratio
ATCGGGGAGT | 1.01
ATCGGGTACA | 0.999
ATCGGGTT | 0.998
ATCGGTATTG | 0.931
ATCGGTCCTG | 1.01
ATCGTACGGG | 1.03
ATCGTCCCT | 1.06
ATCGTCCGTG | 1.06
ATCGTCGGCA | 1.09
ATCGTCTTT | 0.96
ATCGTGAATT | 0.951
ATCGTGCATG | 1.01
ATCGTGGAGC | 0.993
ATCGTTAAAG | 0.991
ATCGTTCCGG | 1
ATCGTTTCCG | 0.923
ATCTAATTGC | 1.03
ATCTAGACGA | 1.02
ATCTAGCGGC | 1.08
ATCTAGTCGG | 0.968
ATCTCGGCAT | 1.73
ATCTCGGGTA | 1.01
ATCTCGTCAC | 1.03
ATCTGAATT | 1.06
ATCTGATCCA | 1

Sequence | switch fluorescence ratio
ATCTGCAAGG | 1.19
ATCTGCAGGC | 1.96
ATCTGCATTC | 2.48
ATCTGCCATT | 1.01
ATCTGGATGC | 1.05
ATCTGTAGAA | 1.01
ATCTGTAGC | 1.06
ATCTGTAGTT | 0.969
ATCTTAGAG | 1.01
ATCTTATTAA | 0.988
ATCTTTAATG | 1.01
ATCTTTATCG | 0.97
ATCTTTCTGT | 0.979
ATCTTTGAGG | 0.973
ATCTTTTTTA | 1.02
ATGAAACTCA | 0.998
ATGAAAGAAG | 0.977
ATGAAAGAGT | 1.01
ATGAACACTT | 1.04
ATGAAGACCG | 1.04
ATGAATATCG | 1.01
ATGAATATTT | 0.97
ATGAATGATC | 0.998
ATGACACAGG | 1.19
ATGACAGGTA | 0.95

Sequence | switch fluorescence ratio
ATGACCATTA | 0.966
ATGACCCATT | 0.99
ATGACGAGCC | 1.21
ATGACGAGCT | 1.17
ATGACGTCGA | 1.01
ATGACGTGGC | 0.952
ATGACTCACG | 1.05
ATGAGAAA | 1.03
ATGAGAATAA | 0.988
ATGAGAGGCA | 1.01
ATGAGAGGGT | 1
ATGAGATGAG | 1
ATGAGCGCTC | 1.03
ATGAGGTACG | 1.02
ATGAGGTTAA | 1.05
ATGAGTAGAG | 0.963
ATGAGTCGAT | 1.07
ATGATCGTAG | 0.958
ATGATCTAAT | 0.964
ATGATGCGG | 0.993
ATGATTAGAA | 1.02
ATGATTATCG | 0.968
ATGCAACGAA | 0.989
ATGCACGGAT | 1.11
ATGCACTTTA | 1.08

Sequence | switch fluorescence ratio
ATGCAGAAGG | 0.992
ATGCAGAGGT | 0.988
ATGCAGCGTT | 0.942
ATGCAGGGGC | 1.07
ATGCATTTAT | 0.998
ATGCCAAGTT | 0.953
ATGCCATAGA | 1.02
ATGCCCAGAT | 0.976
ATGCCCCCTT | 0.986
ATGCCCGACA | 1.01
ATGCCCTAG | 0.984
ATGCCCTCCA | 0.984
ATGCCGCACC | 1.32
ATGCCGTTAT | 1.01
ATGCGAATGC | 1.03
ATGCGAGAAT | 0.98
ATGCGATACG | 1.47
ATGCGCCGCG | 1.02
ATGCGGACGT | 0.988
ATGCGGGAGA | 0.961
ATGCGGTACT | 1.07
ATGCGGTGTA | 1.02
ATGCGTCTGC | 1.11
ATGCGTTGGG | 0.963
ATGCGTTGGT | 1

Sequence | switch fluorescence ratio
ATGCTAACTC | 1.06
ATGCTACTGA | 1.01
ATGCTATGCA | 0.996
ATGCTATTAT | 0.987
ATGCTCCAGC | 1.02
ATGCTCGGTG | 1.03
ATGCTCTCAG | 1
ATGCTTATCC | 1.01
ATGCTTATTT | 1.03
ATGCTTGCGG | 0.951
ATGGAACTGC | 1.02
ATGGAAGAGT | 0.969
ATGGAAGGGG | 0.994
ATGGAATTCA | 0.979
ATGGAGATAT | 1.01
ATGGAGCAAT | 1.06
ATGGAGTCAA | 1.36
ATGGAGTTTC | 0.977
ATGGATCCAT | 0.984
ATGGATCTGG | 1.01
ATGGCGATTT | 0.972
ATGGCGGGCC | 1.01
ATGGCGTTAG | 1.01
ATGGCTCCGA | 1.09
ATGGCTCT | 0.986
